The campaign covered roughly 310,000 compounds. About 14,000 (4.5%) showed an effect of 50% or more. The effect is printed as a negative number. Some of the results follow.
The compounds below were run against human ether-à-go-go-related gene (hERG) potassium channel (human, UniProt Q12809) (assay: primary screen, population patch clamp on CHO cells stably expressing hERG).
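Further: peak tail current of the secondary pulse compared with the same well before compound.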

Sequence of human ether-à-go-go-related gene (hERG) potassium channel (Q12809 whole entry, looked up): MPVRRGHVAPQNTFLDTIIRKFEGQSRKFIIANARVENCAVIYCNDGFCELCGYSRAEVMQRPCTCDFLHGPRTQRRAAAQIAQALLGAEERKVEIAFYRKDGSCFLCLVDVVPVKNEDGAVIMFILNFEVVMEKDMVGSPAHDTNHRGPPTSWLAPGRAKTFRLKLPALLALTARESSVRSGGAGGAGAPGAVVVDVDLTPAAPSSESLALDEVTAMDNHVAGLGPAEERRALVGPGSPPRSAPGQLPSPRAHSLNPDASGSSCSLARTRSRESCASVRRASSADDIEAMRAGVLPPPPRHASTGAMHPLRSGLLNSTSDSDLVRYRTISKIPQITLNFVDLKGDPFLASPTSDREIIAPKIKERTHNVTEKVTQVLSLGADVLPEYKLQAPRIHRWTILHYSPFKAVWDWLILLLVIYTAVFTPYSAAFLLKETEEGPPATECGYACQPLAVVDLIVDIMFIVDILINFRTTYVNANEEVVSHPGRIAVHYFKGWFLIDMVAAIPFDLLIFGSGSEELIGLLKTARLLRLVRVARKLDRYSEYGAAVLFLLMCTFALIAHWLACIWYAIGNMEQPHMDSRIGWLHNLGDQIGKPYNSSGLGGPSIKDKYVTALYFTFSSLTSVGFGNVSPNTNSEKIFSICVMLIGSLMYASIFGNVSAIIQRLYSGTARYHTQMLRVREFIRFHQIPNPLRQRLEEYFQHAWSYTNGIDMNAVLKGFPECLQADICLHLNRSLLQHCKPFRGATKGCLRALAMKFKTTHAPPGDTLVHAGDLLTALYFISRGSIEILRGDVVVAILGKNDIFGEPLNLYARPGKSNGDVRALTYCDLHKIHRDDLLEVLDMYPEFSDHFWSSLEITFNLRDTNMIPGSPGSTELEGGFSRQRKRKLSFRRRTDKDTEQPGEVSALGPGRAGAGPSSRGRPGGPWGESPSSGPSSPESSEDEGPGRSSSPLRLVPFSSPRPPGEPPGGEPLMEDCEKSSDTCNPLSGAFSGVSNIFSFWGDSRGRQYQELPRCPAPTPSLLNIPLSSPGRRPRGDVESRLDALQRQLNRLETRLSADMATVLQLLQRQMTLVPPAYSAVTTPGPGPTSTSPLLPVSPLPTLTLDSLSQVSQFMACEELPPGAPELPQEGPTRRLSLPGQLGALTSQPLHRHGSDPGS

Compared with `Cc1nc(NCc2ccc3c(c2)OCO3)c2oc3ccccc3c2n1`, `O=C(CCC1CCCN(C(=O)c2ccc3c(c2)OCCO3)C1)NCc1ccccc1F` (centres unmarked) is higher in “hERG current change (%, negative = inhibition) at 10uM” value: -15.3% for the first, 15.2% for the second.

Compared with `Clc1cccc(CN2CCCCCCC2)c1Cl`, `O=C(Nc1ccccc1N1CCCC1)c1ccccc1Cl` is higher in “hERG current change (%, negative = inhibition) at 10uM” value: -9.4% for the first, 6.75% for the second.

First: CCOC(=O)Cc1cc(=O)n2[nH]c(-c3ccccc3)c(-c3ccccc3)c2n1
Second: CCOc1ccc(/C=N/NC(=O)c2cc(-c3ccccc3)nc3ccccc23)cc1O
The “hERG current change (%, negative = inhibition) at 10uM” value of the first is lower: -18% for the first, -11.8% for the second.

Going from `Cc1cccc(NC(=O)CN2C(=O)N/C(=C\c3cccn3-c3cccc(C(=O)O)c3)C2=O)c1` to `Cc1cc(C)c(NC(=O)CSc2nc3ccc(NC(=O)CSc4nnnn4-c4ccccc4)cc3s2)c(C)c1`, the “hERG current change (%, negative = inhibition) at 10uM” value falls from 17.4% to 6.8%.

Going from `COC(=O)c1c(O)cc(C(C)(C)C)n(-c2ccccc2)c1=O` to `CCn1c(C)csc1=NC(=O)c1ccccc1O`, the “hERG current change (%, negative = inhibition) at 10uM” value falls from 5.99% to -21%.

Going from `COC(=O)c1c(SCC(=O)Nc2ccc(C)c(C)c2)nc(=O)[nH]c1C` to `COCCN(C(=S)Nc1ccc(C)c(C)c1)C(C)c1ccco1` (centres unmarked), the “hERG current change (%, negative = inhibition) at 10uM” value falls from 2.16% to -6.21%.

Compared with `CCCCN(C(=O)c1ccc([N+](=O)[O-])o1)c1c(N)n(CC(C)C)c(=O)[nH]c1=O`, `CCCCC1CCC(C(=O)OCC(=O)N(CCOC)c2c(N)n(Cc3ccccc3)c(=O)[nH]c2=O)CC1` (centres unmarked) is higher in “hERG current change (%, negative = inhibition) at 10uM” value: -8.74% for the first, 22.3% for the second.

First: COc1ccc(S(=O)(=O)N(CC(=O)NC(C)C)Cc2ccccc2)cc1
Second: COc1ccc(CCC(=O)OCC(=O)NCc2ccccc2)cc1
The “hERG current change (%, negative = inhibition) at 10uM” value of the first is lower: -8.62% for the first, 7.86% for the second.

First: COc1ccc(NC(=O)CC2C(=O)N(Cc3ccco3)C(=S)N2C(C)C)cc1 (centres unmarked)
Second: COc1ccc(NC(=O)CSc2nnnn2Cc2ccccc2)cc1
The “hERG current change (%, negative = inhibition) at 10uM” value of the first is lower: -17.4% for the first, 12.2% for the second.

Going from `Cc1ccc(C(=O)OCc2nc3ccsc3c(=O)[nH]2)o1` to `CCn1c(=O)c2sccc2n(Cc2ccc(C)cc2)c1=O`, the “hERG current change (%, negative = inhibition) at 10uM” value rises from 4.57% to 26%.

Compared with `CC(C(=O)NCC1CCCO1)N1C(=O)C2C3CC(C(Br)C3Br)C2C1=O` (centres unmarked), `CCC1CCCCN1CCCNC(=O)c1c(O)nc2c(C)cccn2c1=O` (centres unmarked) is lower in “hERG current change (%, negative = inhibition) at 10uM” value: 5.46% for the first, -6.16% for the second.

Compared with `C/C=C\C=C\C(=O)N1CC2(CC(c3cccc(NC(=O)/C(C)=C\C)c3)=NO2)C[C@H]1C(N)=O` (some centres unmarked), `COc1cccc(C(=O)Nc2ccc(NC(=O)C3CC3)cn2)c1` is higher in “hERG current change (%, negative = inhibition) at 10uM” value: -1.59% for the first, 4.31% for the second.

First: O=C(COC(=O)c1n[nH]c2ccccc12)NC(=O)NC1CCCC1
Second: Cl.O=C(CN1CCC(NC(=O)c2ccccc2Cl)CC1)NCc1ccco1
The “hERG current change (%, negative = inhibition) at 10uM” value of the first is higher: 8.1% for the first, -2.98% for the second.

First: Cc1ccc(S(=O)(=O)NCc2ccc(C(=O)NCCCN3CCN(C)CC3)cc2)cc1
Second: COc1ccc(OCCOC(=O)CNC(=O)c2ccc(C)cc2)cc1
The “hERG current change (%, negative = inhibition) at 10uM” value of the first is higher: 19.3% for the first, -18.3% for the second.

Going from `COC(=O)CN(C#N)c1nc(SC)nc(N(C)C)n1` to `CCOC(=O)CCSc1nc(C(C)(C)C)cc(C(F)(F)F)c1C#N`, the “hERG current change (%, negative = inhibition) at 10uM” value rises from 6.74% to 7.89%.

Compared with `CCn1nnnc1SCC(=O)N1CCN(Cc2ccc3c(c2)OCCO3)CC1`, `O=c1[nH]c(C2CCN(S(=O)(=O)c3ccc4c(c3)OCCO4)CC2)nc2c1nnn2Cc1ccc(F)cc1` is lower in “hERG current change (%, negative = inhibition) at 10uM” value: 10.4% for the first, -1.67% for the second.

Compared with `COc1ccc(-c2nc3c4c(ncn3n2)-c2ccccc2CC42CCCC2)cc1`, `COc1ccc(-c2oc3ccc(N4CCOCC4)cc3c2C#CCO)cc1` is lower in “hERG current change (%, negative = inhibition) at 10uM” value: 14% for the first, 8.03% for the second.

Going from `CCS(=O)(=O)N1CCCC(C(=O)NCCN2CCC(Cc3ccccc3)CC2)C1` (centres unmarked) to `O=C(NCc1ccccn1)C1CCN(S(=O)(=O)N2CCCCC2)CC1`, the “hERG current change (%, negative = inhibition) at 10uM” value rises from -59.1% to 8.48%.

Going from `O=C(CCS(=O)(=O)c1ccccc1)NC12CC3CC(CC(C3)C1)C2` to `CS(=O)(=O)N1CCC2(CC1)OCCN2S(=O)(=O)c1ccccc1`, the “hERG current change (%, negative = inhibition) at 10uM” value falls from 2.33% to -11.5%.

First: CCOC(=O)CSc1nnc(NC(=O)c2cccc(S(=O)(=O)N3CCCCCC3)c2)s1
Second: O=S(=O)(c1ccc(-c2csc(-c3cccnc3)n2)cc1)N1CCCCC1
The “hERG current change (%, negative = inhibition) at 10uM” value of the first is higher: 2.85% for the first, -5.59% for the second.

First: COc1ccccc1NC(=O)CSc1nnc(C)o1
Second: CCOC(=O)CSc1nc2cc(S(=O)(=O)Nc3ccccc3OC)ccc2o1
The “hERG current change (%, negative = inhibition) at 10uM” value of the first is higher: 7.83% for the first, -2.06% for the second.

Going from `CCOc1cccc(NC(=O)CSc2nncn2N)c1` to `CCn1c(SCC(=O)Nc2cccc(F)c2)nc2c(c1=O)SC(C)C2` (centres unmarked), the “hERG current change (%, negative = inhibition) at 10uM” value falls from 8.81% to -37.2%.

First: CCOC(=O)N1CCN(CCC(=O)Nc2ccccc2)CC1
Second: CC(=O)c1ccc(NC(=O)CCn2c(=O)oc3ccccc32)cc1
The “hERG current change (%, negative = inhibition) at 10uM” value of the first is lower: 12.2% for the first, 12.9% for the second.

Compared with `OC1(c2ccc(Cl)cc2)CCN(Cc2c[nH]c3ccccc23)CC1`, `CNC(=O)c1cn(-c2ccc(Cl)cc2)c(=O)c2ccccc12` is higher in “hERG current change (%, negative = inhibition) at 10uM” value: -63.7% for the first, -9.43% for the second.

First: Cc1ccc(-c2nnn(CC(=O)NC3CCN(Cc4ccccc4)CC3)n2)cc1
Second: Cc1cc(C)c[n+](CC(=O)c2ccc(-c3ccccc3)cc2)c1.[Br-]
The “hERG current change (%, negative = inhibition) at 10uM” value of the first is higher: -20.3% for the first, -45.3% for the second.

Compared with `COC(=O)c1c(NC(=O)C(=O)N2CCCCC2)sc2c1CC(C)(C)OC2`, `CCOc1ccc(NC(=O)CN(C)C(=O)c2cc([N+](=O)[O-])ccc2N2CCCCC2)cc1OCC` is lower in “hERG current change (%, negative = inhibition) at 10uM” value: 5.8% for the first, -43.9% for the second.

First: COc1cc(OC)c2nc(C)c3c(c2c1)N(c1ccc(O)cc1)CC3
Second: COc1cc2sc(C)nc2c2ccccc12
The “hERG current change (%, negative = inhibition) at 10uM” value of the first is lower: -72.1% for the first, 12.5% for the second.

Going from `CC(C)CC(=O)Nc1ccc(C(=O)COC(=O)Cc2n[nH]c(=O)c3ccccc23)cc1` to `O=C(NC(C(=O)N/N=C/c1ccccn1)c1n[nH]c(=O)c2ccccc12)c1ccccc1` (centres unmarked), the “hERG current change (%, negative = inhibition) at 10uM” value rises from -19.5% to -3.87%.

Compared with `CCOc1ccccc1OCC(O)CNC` (centres unmarked), `CCC(C)NC(=O)c1ccc(COc2ccccc2Cl)cc1` (centres unmarked) is lower in “hERG current change (%, negative = inhibition) at 10uM” value: -17.4% for the first, -22.3% for the second.

Going from `CC(C)N(CC(O)COc1ccc(CC(N)=O)cc1)CC(O)COc1ccc(CC(N)=O)cc1` (centres unmarked) to `COc1ccc(CNC(=O)CN(Cc2ccc(OC)cc2)C(=O)c2csnn2)cc1`, the “hERG current change (%, negative = inhibition) at 10uM” value falls from 6.26% to -57.5%.

Compared with `C=CCOc1c(Cl)cc(CNCCC)cc1Cl.Cl`, `COc1ccc(Cl)cc1NC(=O)c1ccco1` is lower in “hERG current change (%, negative = inhibition) at 10uM” value: -4.42% for the first, -7.65% for the second.

First: Cc1cc(S(=O)(=O)Nc2ccc(C(=O)NCC(c3ccccc3)N(C)C)cc2)ccc1F (centres unmarked)
Second: CCOc1cccc(=O)c2c(C)n(CC(=O)c3ccccc3)c(C)c12
The “hERG current change (%, negative = inhibition) at 10uM” value of the first is lower: -47.9% for the first, -6.91% for the second.

Going from `Cc1ccsc1CCNC(=O)C1CCC(=O)N(CCc2cccc(F)c2)C1` (centres unmarked) to `COCCC(=O)N1CCC(Oc2ccc(C(=O)NCc3ncc(C)[nH]3)cc2)CC1`, the “hERG current change (%, negative = inhibition) at 10uM” value rises from -43.2% to 7.21%.

First: O=C(c1ccc(F)cc1F)N1CCN(c2ccccn2)CC1
Second: COc1cccc(N2CCN(C(=O)/C=C/c3ccco3)CC2)c1
The “hERG current change (%, negative = inhibition) at 10uM” value of the first is higher: 0.804% for the first, -29.5% for the second.

Compared with `CCN(Cc1ccccc1)C(=O)CSc1ncn[nH]1`, `O=C(Cc1ccccc1)NCc1ccccn1` is lower in “hERG current change (%, negative = inhibition) at 10uM” value: 28.8% for the first, 11% for the second.

Going from `O=S(=O)(N/N=C\c1c(F)cccc1Cl)c1ccc(Cl)cc1` to `O=C(O)c1ccc(Cl)c(S(=O)(=O)Nc2ccc3[nH]c(=O)[nH]c3c2)c1`, the “hERG current change (%, negative = inhibition) at 10uM” value rises from 1.36% to 10.1%.

First: Cc1cccc(Oc2nc3ccccn3c(=O)c2/C=C(\C#N)C(=O)NC2CCS(=O)(=O)C2)c1 (centres unmarked)
Second: O=C(c1ccc(Cl)c(NC2=NC3CS(=O)(=O)CC3S2)c1)N1CCN(c2ccccc2)CC1 (centres unmarked)
The “hERG current change (%, negative = inhibition) at 10uM” value of the first is lower: -2.33% for the first, 10.8% for the second.

Going from `COc1ccccc1NC(=S)N(Cc1ccco1)Cc1cc2cc(C)c(C)cc2[nH]c1=O` to `COCCn1c(NCc2ccccc2)nc2c1c(=O)[nH]c(=O)n2C`, the “hERG current change (%, negative = inhibition) at 10uM” value rises from -12.6% to -8.43%.

Compared with `O=C1c2ccc3c4c(ccc(c24)C(=O)N1c1ccc2ccccc2c1)CC3`, `O=C1C2CCN(CC2)C1Cc1ccccc1O` (centres unmarked) is lower in “hERG current change (%, negative = inhibition) at 10uM” value: 11.6% for the first, 8.93% for the second.

Compared with `CCC(C)(CC(=O)Nc1nccs1)c1ccccc1` (centres unmarked), `CCOC(=O)CNC(=O)C1COc2ccccc2O1` (centres unmarked) is lower in “hERG current change (%, negative = inhibition) at 10uM” value: 7.66% for the first, -1.4% for the second.

Going from `COc1cc(C)ccc1OCc1cc(C(=O)N2C[C@H]3CC[C@H]2C3)no1` to `COc1cc(C(C)=O)ccc1OCC(O)CN1CCN(c2cc(C)cc(C)c2)CC1` (centres unmarked), the “hERG current change (%, negative = inhibition) at 10uM” value falls from -1.23% to -56.2%.

Going from `CC1CC(OCC(O)C[N+]2(C)CCOCC2)CC(C)(C)C1.[I-]` (centres unmarked) to `Cc1ccc(-c2nc(CSCC(=O)N3CCOCC3)c(C)o2)cc1`, the “hERG current change (%, negative = inhibition) at 10uM” value falls from 22.6% to -7.1%.

Going from `C=CCn1c(SCC(=O)NC2(C#N)CCCCC2)nnc1-c1ccncc1` to `C=CCn1c(CCSCc2ccccc2)n[nH]c1=S`, the “hERG current change (%, negative = inhibition) at 10uM” value falls from 13.8% to -3.91%.

Going from `Cc1nc2cc(C(=O)O)ccc2s1` to `COc1ccc(NC(=O)COC(=O)c2ccc(Br)o2)cc1OC`, the “hERG current change (%, negative = inhibition) at 10uM” value rises from 5.41% to 13.6%.

With `CCOCCCn1c(=S)[nH]c2cc(C(=O)N3CCN(C4CCCCC4)CC3)ccc2c1=O` the “hERG current change (%, negative = inhibition) at 10uM” value was -21.8%.

Reference: PMC4336329 (PLoS ONE, 2015)
